From PubChem BioAssay AID488969 (Vanderbilt High Throughput Screening Facility, 2010)
Whole data set: some 110,000 compounds, median “z-score” near -0.1, cut for the highest 2% near 2. The list shows a part of the results. The source made the active and inactive calls.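 Rule for the calls: active = z-score in the third read window above 3 or below -3; inactive = the rest.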

Molecular target: Metabotropic glutamate receptor 8 (Rattus norvegicus) (UniProt P70579)
Assay: rat mGluR8 modulators via GIRK flux, primary screen, cell-based, thallium flux, HTS (AID 488969)
Settings: HEK293 rat mGluR8, GIRK (G protein-gated inwardly rectifying potassium channel) thallium flux, FluoZin2; at 10 µM; stronger effect = higher value; submaximal glutamate (EC20) added with thallium

UniProt P70579, sequence (P70579 whole entry, looked up): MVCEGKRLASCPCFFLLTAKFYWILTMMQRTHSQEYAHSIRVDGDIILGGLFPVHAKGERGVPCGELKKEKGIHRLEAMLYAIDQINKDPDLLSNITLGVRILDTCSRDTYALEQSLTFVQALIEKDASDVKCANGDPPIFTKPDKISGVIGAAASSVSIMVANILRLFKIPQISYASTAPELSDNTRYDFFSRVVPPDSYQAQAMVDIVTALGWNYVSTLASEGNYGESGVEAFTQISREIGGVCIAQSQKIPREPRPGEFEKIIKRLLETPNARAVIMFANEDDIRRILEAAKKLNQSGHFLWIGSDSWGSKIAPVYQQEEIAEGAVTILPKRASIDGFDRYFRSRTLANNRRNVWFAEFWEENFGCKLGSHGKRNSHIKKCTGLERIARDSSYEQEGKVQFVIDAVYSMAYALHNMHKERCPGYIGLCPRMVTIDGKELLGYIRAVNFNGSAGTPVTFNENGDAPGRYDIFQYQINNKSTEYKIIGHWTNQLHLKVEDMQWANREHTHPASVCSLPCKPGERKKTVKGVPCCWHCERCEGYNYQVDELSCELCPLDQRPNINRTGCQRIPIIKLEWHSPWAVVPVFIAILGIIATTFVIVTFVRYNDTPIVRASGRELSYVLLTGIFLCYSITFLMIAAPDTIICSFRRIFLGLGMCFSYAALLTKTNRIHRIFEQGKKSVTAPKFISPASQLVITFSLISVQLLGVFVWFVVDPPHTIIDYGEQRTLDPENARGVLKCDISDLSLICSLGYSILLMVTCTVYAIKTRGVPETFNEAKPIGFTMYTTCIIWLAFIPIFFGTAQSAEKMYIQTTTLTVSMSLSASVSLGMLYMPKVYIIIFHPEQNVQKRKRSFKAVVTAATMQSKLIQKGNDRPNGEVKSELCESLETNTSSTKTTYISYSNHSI

SMILES | z-score
COc1ccc2c(c1)Cc1sc(NC(=O)c3ccccc3)nc1-2 | 0.132
O=C(CSc1nnc(Cc2ccccc2)n1-c1ccc(F)cc1)N1CCOCC1 | 0.477
Cc1ccc(Cn2cc(/C=N/Nc3ccc([N+](=O)[O-])cn3)c3ccccc32)cc1 | 0.407
COc1cccc(-c2nnn(CC(=O)O)n2)c1 | 0.0347
CCOC(=O)CSc1nc2sc3c(c2c(=O)[nH]1)CC(C)(CC)OC3 (stereo not given) | -0.983
CN1C(=O)N(C)C2CC1N(C)C(=O)N2C | -0.227
COc1ccc(-c2cc(C(F)F)nc(-n3nc(C)cc3C)n2)cc1 | -0.32
COc1ccccc1N1CCN(C(=O)c2cn(-c3ccccc3)nc2-c2cccnc2)CC1 | -0.689
COc1ccc(-c2nc(-c3cccs3)c(-c3cccs3)[nH]2)cc1OC | -0.537
N#CCSc1nc(N)c(C#N)c(C2CCCCC2)c1C#N | -0.112
NS(=O)(=O)c1ccc(NC(=O)C2COc3ccccc3O2)cc1 (stereo not given) | active: -3.14
COCCNC(=O)C(=O)Nc1cccc(Br)c1 | -0.149
COc1ccc(Br)cc1/C=N/NC(=O)c1nc(-c2ccccc2)n2c1CCCCC2 | -0.0756
O=C(C1CCN(S(=O)(=O)c2ccc(Br)s2)CC1)N1CCc2ccccc21 | -0.362
Cc1cccc(OCc2nnc(SCC(=O)NCCc3ccccc3)o2)c1 | 0.313
Cc1noc(C)c1CSCC(=O)NC1=NCCS1 | -0.333
COc1cc(/C=C/C(=O)Nc2cc(C(F)(F)F)ccc2Cl)cc(OC)c1OC | -0.338
COc1ccc(/C=N/Nc2cc(C)nc(N)n2)cc1 | 0.00932
CCOC(=O)c1c(-c2ccc(Cl)cc2)c(C#N)c(=O)n(N)c1N | -0.497
O=C1OC(N2CCN(Cc3ccccc3)CC2)c2ccccc21 (stereo not given) | 0.332
COc1ccc(-c2ncncc2-c2csc(C)n2)c(O)c1OC | -0.116
CCOC(=O)C1=C(CSc2nc3c(cc2C#N)CCC3)OC(N)=C(C#N)C1c1ccccc1 (stereo not given) | 0.259
CCc1nnc(NC(=O)[C@@H](NC(=O)c2cccc(S(=O)(=O)N(CC)CC)c2)C(C)C)s1 | -1.2
COC(=O)c1cc(NC(=O)c2ccc(Cn3cc(Cl)cn3)o2)cc(C(=O)OC)c1 | -0.37
COc1ccccc1CNC(=O)C1CC(c2c(Cl)cccc2Cl)=NO1 (stereo not given) | -0.231
Cc1cc(C)n(Cc2nc3ccccc3n2C)n1 | -0.157
Cc1ccc[n+](C(C)C(=O)Nc2ccc(C)c([N+](=O)[O-])c2)c1 (stereo not given) | -0.0738
CCOC(=O)c1cc(-c2ccc3c(c2)OCO3)nc2onc(C)c12 | 0.323
CCN1CCN(C(=O)c2cc3cc4ccc(OC)cc4nc3s2)CC1 | 0.148
COCCCn1c(=N)c(C(=O)NCc2ccc3c(c2)OCO3)cc2c(=O)n3ccccc3nc21 | -0.494
